The values below come from PubChem BioAssay AID493208 (National Center for Advancing Translational Sciences (NCATS), 2011).

Molecules are shown by their SMILES. Hit rate of the full screen: of about 44,000 compounds, about 340 (0.77%) were called active. Inconclusive results (about 5%) are left out. The call rests on the fitted dose curve; in most records, active means well fitted inhibition curve with a large enough effect; inconclusive means small, poorly fitted or top-dose-only effect; inactive means flat fitted curve, though single readings scatter. The list shows a part of the results.
Potency means the concentration at half of the fitted maximal effect.

This assay can be described thus: Acumen qHTS Assay for Inhibitors of the mTORC1 Signaling Pathway in MEF (Tsc2-/-, p53-/-) Cells: Sytravon. Further: nearly all actives have a fitted effect of over 50% in size.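 On activity change, negative = inhibition: plate controls were DMSO for no effect and rapamycin for full effect.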 The settings on record: phospho-rpS6 immunofluorescence/PI, 24 h; series mostly up to 38.3 µM; activity change, negative = inhibition: at the top concentration. An outline of the steps:
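Tsc2-/-, p53-/- mouse embryonic fibroblasts (empty-vector line) exposed to compound 24 hrs at 37 C, fixed, immunostained for phospho-rpS6 and counterstained with propidium iodide. Acumen laser scanning gives % positive cells from Alexa 488/PI ratio, thresholded using 7.5 nM rapamycin; PI count gives viability.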
In general terms: Quantitative high-throughput screening tests each substance at several concentrations.
Consider `Cn1nnc2c(N3CCN(c4cccc(C(F)(F)F)c4)CC3)ncnc21`, for which the “activity change, negative = inhibition” value was inactive: -0.139%.
Same read-out and setting: the figure for `CCOc1ccccc1NC(=O)C(c1ccccc1)N1Cc2ccccc2C1=O` (stereo not drawn) is inactive: -3.12%; for `Fc1ccccc1N1CCN(c2ncc3c(n2)CCN(Cc2cc(Br)cs2)C3)CC1` it is inactive: 12.1%.
Turning to `COc1ccc(OC)c(CNC(=O)CN2CC(C)Sc3ccccc32)c1` (stereo not drawn), the “activity change, negative = inhibition” value is inactive: -4.17%.
Consider `Cc1cc(OCC(=O)NCC2(N3CCOCC3)CCCCC2)ccc1Cl`, for which the “activity change, negative = inhibition” value was inactive: -26.4%.
Regarding `CCc1noc(-c2ccc(N3CCCCC3)c([N+](=O)[O-])c2)n1`, the “activity change, negative = inhibition” value was inactive: -5.24%.
For `CCc1cccc(NC(=O)C(CC(C)C)NS(=O)(=O)c2ccc3c(c2)oc(=O)n3C)c1` (stereo not drawn), the “activity change, negative = inhibition” value is inactive: 0.919%.
As to `CCC(=O)N1CCc2cc(CNC(=O)Nc3cc(Cl)ccc3C(=O)OC)ccc21`, the “activity change, negative = inhibition” value is inactive: -6.95%.
In the case of `Brc1ccc2nc(-c3ccccc3)c(Nc3ccc4c(c3)OCO4)n2c1`, the “activity change, negative = inhibition” value is inactive: 2.72%.
In the case of `O=C(Nc1cccc(Cl)c1)C1CCCN1S(=O)(=O)c1cccc2cccnc12` (stereo not drawn), the “activity change, negative = inhibition” value is inactive: -7.63%.
Still for that read-out and setting: for `Cn1nnnc1SCCNCc1ccc(OCc2ccc(Cl)cc2)cc1` the value was inactive: -25.4%.
As for `COc1ccccc1-c1nnc(SCC(=O)c2ccc(F)cc2)n1-c1ccccc1`, the “activity change, negative = inhibition” value is inactive: -15.3%.
As for `CCc1ccc(CNC(=O)CN2C(=O)CCn3nc(-c4cn(C)c5ccccc45)cc32)cc1`, the “activity change, negative = inhibition” value is inactive: -15%.
Same read-out and setting: the figure for `Cc1cc(Cl)ccc1OCc1cc(=O)n2c3c(sc2n1)CCCC3` is inactive: 1.98%.
On to `Cc1ccc(CN2C(=O)c3ccccc3Sc3ccc(C(=O)NCCCN4CCOCC4)cc32)cc1`, for which the Potency was active: 11.7 µM.
In the case of `Cc1oc(-c2cccc(Cl)c2)nc1CN1CCC(C(=O)NCCc2ccc(Cl)cc2)CC1`, the “activity change, negative = inhibition” value was inactive: -0.466%.
For `COc1cccc(OCC(=O)Nc2nnc3n2CCS3)c1`, the “activity change, negative = inhibition” value was inactive: 1.73%.
On the same count and under the same terms, the figure for `CCc1ccc(C2=C(C)C(N3CCC(C(=O)NCCc4ccco4)CC3)=NS2(=O)=O)cc1` is inactive: -6.52%.
On the same count and under the same terms, for `COc1ccc(C(=O)Nc2ccc(N3CCOCC3)c(C(F)(F)F)c2)cc1OC` the value was inactive: -25.8%.
Same read-out and setting: for `Cc1cccc(NC(=O)CSc2nc(=O)n(Cc3cccnc3)c3c2CCC3)c1C` the value was inactive: -7.43%; for `COc1ccccc1NC(=O)c1cc(S(=O)(=O)N2CCc3ccccc32)ccc1F`, inactive: 8.77%; for `COc1ccc(NC(=O)c2cc3c(=O)n(Cc4cccnc4)ccc3nc2C)cc1Cl`, inactive: -16.3%.
On to `C=Cc1ccc(Cn2c(=O)cc(C)c3c(C)nn(C)c32)cc1`, for which the “activity change, negative = inhibition” value is inactive: -19.3%.
Same read-out and setting: the figure for `Cc1cccc(N2CCN(c3c4c(nc5nncn35)CCC4)CC2)c1C` is inactive: 1.07%.
The same measure, in the same setting: the figure for `COc1cc(-c2nnc(SCC(=O)Oc3ccccc3Cl)o2)cc(OC)c1OC` is inactive: -3.41%.
The same measure, in the same setting: the figure for `O=c1c(N2CCc3ccccc3C2)csc2ccc(Br)cc12` is inactive: 4.76%; for `COc1ccccc1NC(=O)c1cc(C2CC2)nc2c1c(C)nn2-c1ccc(C)cc1` it is inactive: 0.898%.
Take `CC(C)CCN(Cc1ccco1)C(=O)Cn1ncc2c([nH]c3ccccc32)c1=O`: the “activity change, negative = inhibition” value was inactive: -0.711%.
On the same count and under the same terms, the figure for `COc1ccccc1Cc1nc2ccccc2nc1SCC(=O)N1CCC(C)CC1` is inactive: 0.634%; for `Cc1cccc(C(=O)Nc2ccc(N3CCN(c4ccc(F)cc4)CC3)c(C(=O)O)c2)c1` it is inactive: 0.322%.
Same read-out and setting: for `CCOC(=O)c1cc(-c2ccccc2)n(CCCC(=O)Nc2cc(C)ccc2OC)c1C` the value was inactive: 8.31%; for `Cc1ccn2c(Nc3ccc4c(c3)OCCO4)c(-c3ccc(C)s3)nc2c1`, inactive: -4.09%.
Same read-out and setting: for `Cc1ccc2nc(SCC(=O)Nc3ccc(C#N)cc3)[nH]c2c1` the value was inactive: -1.19%; for `Cc1c(C(=O)N2CCC(C)CC2)c(S(=O)(=O)N2CCN(c3cccc(Cl)c3)CC2)c(C)n1C`, inactive: 0%; for `COc1ccc(OC)c(NC(=O)CCc2nc(-c3ccc(C)cc3)no2)c1`, inactive: -23.9%.
Take `COc1ccc(S(=O)(=O)c2cn(Cc3ccccc3)c3cc(F)c(F)cc3c2=O)cc1`: the “activity change, negative = inhibition” value is inactive: 3.41%.
The same measure, in the same setting: for `CN1C(=O)c2[nH]nc(-c3ccc(F)cc3)c2C1c1ccccn1` (stereo not drawn) the value was inactive: -2.71%.
In the case of `COc1ccc(Nc2cc(C(=O)NCc3ccccc3)c3ccccc3n2)cc1OC`, the “activity change, negative = inhibition” value is inactive: 2.13%.
The same measure, in the same setting: the figure for `O=c1c(S(=O)(=O)c2ccc(Cl)cc2)cn(Cc2ccc(F)cc2)c2ccc(F)cc12` is inactive: -13.6%; for `CCOc1ccc(C(=O)NCc2ccc3c(c2)CCN3C(=O)c2ccc(C)cc2)cc1OCC` it is inactive: -0.553%.
Still for that read-out and setting: the figure for `CCCCn1c(SCC(=O)Nc2ccc(F)cc2)nc2c(sc3ccccc32)c1=O` is inactive: 2.23%; for `CC(C)c1ccc(NC(=O)Cn2nnc(C(=O)NCc3cccs3)c2N)cc1` it is inactive: -1.28%.
The same measure, in the same setting: for `Cc1ccc2oc3c(c(=O)c2c1)C(c1ccc(OCC(N)=O)cc1)N(Cc1ccc2c(c1)OCO2)C3=O` (stereo not drawn) the value was inactive: 5.79%; for `CNC(=O)CSc1nnc(NC(=O)Nc2ccccc2)s1`, inactive: -4%; for `CCOc1ccccc1N(CC(=O)Nc1ccc(OC)c(Cl)c1)S(=O)(=O)c1ccccc1`, inactive: -2.67%.
In the case of `O=C(CSc1nnc(-c2ccc(Br)cc2)n1-c1ccccc1)c1ccccc1`, the “activity change, negative = inhibition” value was inactive: 2.24%.
On the same count and under the same terms, for `COc1ccc(NC(=O)C(=O)NCC2(c3ccccc3)CCCC2)c(OC)c1` the value was inactive: 4.31%; for `COc1ccc(C(=O)NCC(c2ccc3c(c2)OCO3)N2CCN(c3ccc(F)cc3)CC2)cc1` (stereo not drawn), inactive: 0.739%.
Regarding `Cc1ccc(N(CC(C)C)S(=O)(=O)c2nnc(NC(=O)c3cccs3)s2)cc1`, the “activity change, negative = inhibition” value is inactive: 6.41%.
Consider `CCOCN(C(=O)Cn1cnc2cc(C)c(C)cc21)c1c(C)cccc1CC`, for which the “activity change, negative = inhibition” value was inactive: -5.83%.
As for `CCc1ccccc1NC(=O)c1cc(-c2ccc3c(c2)OCO3)on1`, the “activity change, negative = inhibition” value is inactive: 3.21%.
For `CCOc1ccc(/C=C/c2nc(C#N)c(N3CCN(c4ccccc4)CC3)o2)cc1`, the “activity change, negative = inhibition” value was inactive: 2.55%.
On to `COc1ccc(CNC(=O)CN2C(=O)COc3ccc(S(=O)(=O)N4CCOCC4)cc32)cc1`, for which the “activity change, negative = inhibition” value was inactive: 1.93%.
With `COc1ccccc1CNC(=O)Cn1c(=O)ccc2cc(S(=O)(=O)N3CCCC3)ccc21`, the “activity change, negative = inhibition” value is inactive: -6.4%.
Still for that read-out and setting: the figure for `CCOc1ccc(N(CC)S(=O)(=O)N2CCCC(C(=O)NCCc3ccccc3OC)C2)cc1` (stereo not drawn) is inactive: 1.17%.
For the molecule `CC1CCCCN1C(=O)CSc1nnc(-c2ccccc2Cl)o1` (stereo not drawn), the “activity change, negative = inhibition” value is inactive: -9.07%.
Take `COc1ccc(-c2cn3nc(N4CCC(C(=O)Nc5ccc(C)cc5)CC4)sc3n2)cc1`: the “activity change, negative = inhibition” value is inactive: -8.05%.
Regarding `Cc1ccc(O)c(C2=Nc3ccccc3N=C(c3cccc(F)c3)C2)c1`, the “activity change, negative = inhibition” value is inactive: -2.8%.
On to `O=C(Nc1ccc(C(=O)N2CCN(c3ccc(Cl)cc3)CC2)cc1)c1nsc2ccccc12`, for which the “activity change, negative = inhibition” value was inactive: 0%.
On the same count and under the same terms, for `Cc1ccc2oc(-c3cc(NC(=O)c4cccs4)cc(C)c3O)nc2c1` the value was inactive: 8.37%; for `COc1ccc(Br)cc1CNC(=O)C1COc2ccccc2C1` (stereo not drawn), inactive: -4.9%.
Consider `Cc1ccc(-n2c(SCC(N)=O)nc3c([nH]c4ccccc43)c2=O)cc1`, for which the “activity change, negative = inhibition” value was inactive: 1.57%.
For `Cc1ccc(Cn2c(C)c(CNC(C)c3ccccc3)c(C(=O)O)c2C)cc1` (stereo not drawn), the “activity change, negative = inhibition” value was inactive: -0.622%.
